# Assay results published in the supplement of paper PMC4604168 (melanoma cell lines).
# The other results are listed elsewhere or left out. Repeats are few or missing, and single values can be far off.
# Tests used:
# Assay in all cases: cell count relative to DMSO control; melanoma cells; higher = more viable cells
# Details in all cases: library dose: standard library concentration; 72 h
# G361 = system: G361
# IPC-298 = system: IPC-298
# IST-MEL1 = system: IST-MEL1
# LB2518-MEL = system: LB2518-MEL
# LOXIMVI = system: LOXIMVI
# MEL-HO = system: MEL-HO
# MZ2-MEL = system: MZ2-MEL
# MeWo = system: MeWo
# RPMI7951 = system: RPMI7951
# RVH-421 = system: RVH-421
# SkMel28 = system: SkMel28
# SkMel2 = system: SkMel2
# SkMel30 = system: SkMel30
# SkMel5 = system: SkMel5
# UACC257 = system: UACC257
# UACC62 = system: UACC62
# WM115 = system: WM115
# WM1716 = system: WM1716
# WM1745 = system: WM1745
# WM3526 = system: WM3526
# 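Note: cells treated in 1,536-well plates, then fixed and DAPI-stained, with nuclei counted from automated high-throughput microscope images.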
SMILES,cell count (G361) [%],cell count (IPC-298) [%],cell count (IST-MEL1) [%],cell count (LB2518-MEL) [%],cell count (LOXIMVI) [%],cell count (MEL-HO) [%],cell count (MZ2-MEL) [%],cell count (MeWo) [%],cell count (RPMI7951) [%],cell count (RVH-421) [%],cell count (SkMel28) [%],cell count (SkMel2) [%],cell count (SkMel30) [%],cell count (SkMel5) [%],cell count (UACC257) [%],cell count (UACC62) [%],cell count (WM115) [%],cell count (WM1716) [%],cell count (WM1745) [%],cell count (WM3526) [%]
"OCc1c[nH]c2ccccc12 [Indole-3-carbinol] + C[As](C)SC[C@H](NC(=O)CC[C@H](N)C(=O)O)C(=O)NCC(=O)O [Darinaparsin] (first compound 4 µM, partner dose 2 µM)",100,98.7,101,95.8,84.9,79.5,104,74.2,84.7,78.3,130,90.1,68.3,52.7,75.8,77.2,81,71.4,73.8,72.6
"Cc1cc(SCc2sc(-c3ccc(C(F)(F)F)c(F)c3)nc2C)ccc1OCC(=O)O + Cn1cc(/C=C2\C(=O)Nc3cccnc32)c2ccccc21 [GW441756] (first compound 10 µM, partner dose 2 µM)",82.8,74.4,92.3,69,54.9,89.1,86.7,117,115,90.1,97.9,103,91,59.7,80.5,78.6,94.8,105,65.2,100
"COc1ccc(C2=N[C@@H](c3ccc(Cl)cc3)[C@@H](c3ccc(Cl)cc3)N2C(=O)N2CCNC(=O)C2)c(OC(C)C)c1 [Nutlin-3] + C[C@]12O[C@H](C[C@]1(O)CO)n1c3ccccc3c3c4c(c5c6ccccc6n2c5c31)CNC4=O [Lestaurtinib] (first compound 0.5 µM, partner dose 0.02 µM)",64.3,74.7,87.1,55.4,57.7,81.2,81.1,78.8,107,83.1,57.5,83.4,93.9,56.2,60.9,60.3,59.7,65,67.4,65.8
"NCC(=O)Nc1ccc(-n2nc(C(F)(F)F)cc2-c2ccc3c(ccc4ccccc43)c2)cc1 + C/C(O)=C(\C#N)C(=O)Nc1cc(Br)ccc1Br [LFM-A13] (first compound 5 µM, partner dose 10 µM)",78.4,48.7,86.3,86.6,74,70.9,71.1,95.2,103,90.3,20.2,36.7,45.2,61.4,79.4,67.8,77.5,96,98.7,41.9
"Cn1cncc1[C@@](N)(c1ccc(Cl)cc1)c1ccc2c(c1)c(-c1cccc(Cl)c1)cc(=O)n2C [tipifarnib] + O=C(Oc1ccc([N+](=O)[O-])cc1)N1CCC(C(O)(c2ccc3c(c2)OCO3)c2ccc3c(c2)OCO3)CC1 [JZL184] (first compound 0.05 µM, partner dose 5 µM)",99.6,91.1,96.5,87.5,54.5,102,100,111,71.4,100,74.4,81.3,86,66.5,98.9,64.6,66,77.9,95.3,87.3
"NC1(c2ccc(-c3nc4ccn5c(=O)[nH]nc5c4cc3-c3ccccc3)cc2)CCC1 + N.N.[Cl][Pt][Cl] [cisplatin] (first compound 2 µM, partner dose 8 µM)",84.3,112,89.5,72,67.1,95.1,103,94.2,80.3,74,59.4,91.4,116,87.1,86.2,63.2,76.6,84.2,65.3,75.5
"O=C(Nc1cccc(Cl)c1)Nc1ncc(CCNc2ncnc3ccsc23)s1 + C/C(O)=C(\C#N)C(=O)Nc1cc(Br)ccc1Br [LFM-A13] (first compound 0.004 µM, partner dose 10 µM)",66.3,70.1,55.2,79.8,95.2,58.2,66,72.9,50.9,68.7,37.5,72.2,73.6,71.3,83.5,74.4,41.3,42.8,51.4,71.8
"O=C(Nc1ccccc1)c1cc([N+](=O)[O-])ccc1Cl + C/C(O)=C(\C#N)C(=O)Nc1cc(Br)ccc1Br [LFM-A13] (first compound 10 µM, partner dose 10 µM)",96.8,99.2,94.6,98.8,116,88.3,85.3,70.2,74,77,61.8,87.4,78.3,62.3,84.2,85.9,71.5,86.2,78.9,74.2
